# Data reported in PMC4336329 (PLoS ONE, 2015).
# Out of some 310,000 compounds screened, about 14,000 (4.5%) showed an effect of 50% or more. The effect is printed as a negative number. The list shows a part of the results.
# Molecular target: human ether-à-go-go-related gene (hERG) potassium channel (human, UniProt Q12809)
# Test: primary screen, population patch clamp on CHO cells stably expressing hERG
# 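Further: peak tail current of the secondary pulse compared with the same well before compound.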
# Chain of human ether-à-go-go-related gene (hERG) potassium channel (Q12809 whole entry, looked up): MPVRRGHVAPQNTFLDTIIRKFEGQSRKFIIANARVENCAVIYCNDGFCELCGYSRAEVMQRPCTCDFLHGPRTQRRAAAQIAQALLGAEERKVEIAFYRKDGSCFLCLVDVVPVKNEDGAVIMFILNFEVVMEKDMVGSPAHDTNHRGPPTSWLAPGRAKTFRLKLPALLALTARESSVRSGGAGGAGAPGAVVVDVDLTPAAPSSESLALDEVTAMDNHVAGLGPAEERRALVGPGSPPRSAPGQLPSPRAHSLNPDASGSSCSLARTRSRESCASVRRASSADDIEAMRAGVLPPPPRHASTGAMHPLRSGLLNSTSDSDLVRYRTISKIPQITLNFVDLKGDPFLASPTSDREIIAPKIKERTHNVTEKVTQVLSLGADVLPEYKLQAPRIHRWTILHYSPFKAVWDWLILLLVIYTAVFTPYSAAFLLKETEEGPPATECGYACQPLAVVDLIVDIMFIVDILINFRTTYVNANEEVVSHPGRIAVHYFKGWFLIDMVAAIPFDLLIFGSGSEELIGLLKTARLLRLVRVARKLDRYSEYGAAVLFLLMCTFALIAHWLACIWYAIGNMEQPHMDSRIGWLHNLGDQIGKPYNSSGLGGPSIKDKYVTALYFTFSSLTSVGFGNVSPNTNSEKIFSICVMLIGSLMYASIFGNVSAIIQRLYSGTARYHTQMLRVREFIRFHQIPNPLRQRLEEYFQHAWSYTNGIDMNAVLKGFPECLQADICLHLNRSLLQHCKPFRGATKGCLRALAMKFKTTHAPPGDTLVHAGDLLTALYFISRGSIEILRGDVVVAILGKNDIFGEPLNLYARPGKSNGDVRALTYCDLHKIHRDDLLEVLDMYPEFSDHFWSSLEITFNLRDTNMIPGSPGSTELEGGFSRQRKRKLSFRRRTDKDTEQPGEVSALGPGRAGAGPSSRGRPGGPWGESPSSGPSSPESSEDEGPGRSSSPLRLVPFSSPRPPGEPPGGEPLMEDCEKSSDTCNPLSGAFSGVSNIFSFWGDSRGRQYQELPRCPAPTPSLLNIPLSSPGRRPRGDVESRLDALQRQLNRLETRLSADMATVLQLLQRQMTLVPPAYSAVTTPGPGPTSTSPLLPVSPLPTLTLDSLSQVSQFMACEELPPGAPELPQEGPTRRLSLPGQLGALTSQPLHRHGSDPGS
row,Structure (SMILES),"hERG current change (%, negative = inhibition) at 10uM [%]"
1,CN(Cc1ccccc1)C(=C(Cl)Cl)C(=C1NCCN1)[N+](=O)[O-],11.4
2,CCN(CC)CCn1c(NC(=O)c2ccc(Cl)cc2)nc2ccccc21,-31.5
3,O=[N+]([O-])c1cc(/C=N/n2c(-c3ccncc3)n[nH]c2=S)ccc1Cl,9.57
4,Cl.NC[C@@]12CCCC1C1CCC2C1 (stereo partly shown),-8.07
5,COC(=O)Cc1c(CSc2ccccc2)oc2ccc(O)c(CN(C)C)c12,-47.8
6,Cc1cc(C)cc(N2C(N)=NC(N)=NC2c2cccc(Cl)c2)c1.Cl (stereo not shown),3.91
7,O=C(CSc1nc(C2CC2)nc2ccccc12)N1c2ccccc2Sc2ccc(C(F)(F)F)cc21,-4.52
8,S=C(Nc1ccc(Nc2ccccc2)cc1)NN1CCOCC1,3.04
9,COc1ccc(-c2csc3[nH]c(=S)n(-c4ccccc4)c(=O)c23)cc1OC,23.8
10,O=C(OC1CCOC1=O)c1cc(-c2ccc(Br)cc2)nc2ccccc12 (stereo not shown),-6.58
11,C=CCN(c1ccccc1)S(=O)(=O)c1cccc(C(=O)NCC(c2ccccc2OC)N2CCCC2)c1 (stereo not shown),-70.5
12,CC(C)(C)C1CCC(C(=O)OCC(=O)Nc2ccc3[nH]c(=O)[nH]c3c2)CC1 (stereo not shown),25.3
13,COc1ccc(C)cc1NC(=S)N1CCOCC1,13.9
14,COc1ccc(C(=O)CSc2n[nH]c(-c3ccncc3)n2)cc1[N+](=O)[O-],5.84
15,C/C(=N\Nc1cccc(C(=O)O)c1)c1cc2ccccc2o1,9.54
16,Cc1nc(N2CCN(Cc3ccccc3)CC2)nc2c1C(=O)CCC2,-13.5
17,CSc1ccc(CCNC(=O)C2CCCN(c3ncnc4c3nc3n4CCCCC3)C2)cc1 (stereo not shown),-61.8
18,CCOC(=O)c1nnn2c3ccccc3c(=O)n(C)c12,-9.47
19,CC1(C)C2CCC13CS(=O)(=O)N[C@@H]3C2 (stereo partly shown),20.5
20,Cc1nc(Cl)cc(CS(=O)(=O)c2ccc(Cl)cc2)n1,9.44
21,O=C(COc1ccccc1F)NNC(=O)c1ccc2c(=O)n3c(nc2c1)CCC3,0.849
22,CC(=O)c1csc(COc2cc(Cl)cc(Cl)c2)n1,3.06
23,N#Cc1ccc(OS(=O)(=O)c2ccc(-c3ccon3)s2)cc1,-45.6
24,N#CCCCSc1nnc(-c2ccccn2)o1,7.48
25,CCOc1cccc2c1OC1(C)CC2NC(=O)N1c1cccc(C(=O)N2CCN(c3ccccn3)CC2)c1 (stereo not shown),-1.89
26,COc1ccc(CC(=O)NCc2nnc(SCC(=O)Nc3nccs3)n2-c2ccccc2)cc1,2.7
27,COCCN(C(=O)COC(=O)CNC(=O)c1cccs1)c1c(N)n(Cc2ccccc2)c(=O)[nH]c1=O,9.31
28,COc1ccc(C(CNC(=O)CCOc2ccccc2)N(C)C)cc1 (stereo not shown),-29.4

row,Structure (SMILES),"hERG current change (%, negative = inhibition) at 10uM [%]"
1,Clc1ccc(Cn2c(-c3cccnc3Cl)nc3ccccc32)cc1,-70.7
2,O=C(O)c1ccc(OCCOc2ccccc2)cc1,13.6
3,C=CCOc1c(Br)cc(C2C3=C(CCCC3=O)N(C)C3=C2C(=O)CCC3)cc1OCC,1.88
4,O=C(CNc1ccccc1F)Nc1cc(S(=O)(=O)N2CCCCC2)ccc1Cl,5.42
5,CCOC(=O)c1c(C)[nH]c(C)c1C(=O)COC(=O)c1cc(OC)c(OC)cc1OC,10.1
6,C=CCn1c(SCc2c(Cl)cccc2Cl)nnc1-c1cccnc1,-30.6
7,CC(C(=O)Nc1ccc(S(=O)(=O)N2CCOCC2)cc1)N(c1ccccc1)S(C)(=O)=O (stereo not shown),4.71
8,CS(=O)(=O)N1N=C(c2ccccc2)CC1c1ccc2c(c1)OCO2 (stereo not shown),13.9
9,O=C(COC(=O)CNC(=O)c1cccc(Br)c1)Nc1nnc(-c2ccccc2)o1,-0.546
10,CCCCn1nc(CC(=O)O)c2ccccc2c1=O,4.35
11,CCOC(=O)c1sc(N)c(C#N)c1COC(=O)CNC(=O)c1cc(OC)c(OC)c(OC)c1,-25
12,CCOc1cc(/C=C2\SC(=O)N=C2N)ccc1O,6.75
13,S=C(Nc1ccccc1)N1CCN(c2ccc(N3CCOCC3)nn2)CC1,2.38
14,C=CCNC(=O)c1ccc(-n2cccc2)cc1,8.49
15,CC(=O)Nc1ccc(/C=N\NC(=O)CNS(=O)(=O)c2ccc([N+](=O)[O-])cc2)cc1,-4.32
16,CCc1cc(=O)oc2c(CN3CCCC3)c(O)c(Cl)cc12,-16.6
17,CC12CCC(C(=O)N(c3ccccn3)c3ccccn3)(OC1=O)C2(C)C (stereo not shown),3.38
18,O=C(NCc1ccccc1)c1ccc(CN2CCC(Cc3ccccc3)CC2)cc1,-70.3
19,O=C(Cc1n[nH]c(=O)c2ccccc12)NCc1ccc(Cl)cc1,-17.5
20,Cc1ccc2c(Cl)cc(Cl)c(OCC(=O)N3CCCC3)c2n1,-2.01
21,C=CCNC(=O)c1onc(CSc2ccc(C(C)C)cc2)c1C(=O)O,7.69
22,O=C(c1cc([N+](=O)[O-])ccc1Cl)N1CCN(c2ccccc2)CC1,-6.43
23,Cc1cc(C)n(C(=O)CCCC(=O)n2nc(C)cc2C)n1,-4.17
24,CNC(=O)c1c(NC(=O)c2cc(-c3cc(C)c(C)cc3O)n[nH]2)sc2c1CCCC2,12.2
25,COc1c2ccoc2c(OCC=C(C)C)c2oc(=O)ccc12,11.3
26,COc1ccc(NC(=O)C(Cc2ccccc2)NC(=O)c2ccco2)cc1OC (stereo not shown),7.59
27,Cc1cc2cc(C)c3nnc(SCC(=O)Nc4ccc(S(=O)(=O)N5CCCCC5)cc4)n3c2cc1C,-19.2
